Here are results for 42 compounds from ChEMBL document CHEMBL4888484, “Replenishing the malaria drug discovery pipeline: Screening and hit evaluation of the MMV Hit Generation Library 1 (HGL1) against asexual blood stage Plasmodium falciparum ,using a nano luciferase reporter read-out” (2022).

Hit rate of the full screen: of about 150,000 compounds, about 540 (0.36%) showed an effect of 50% or more. Some of the results follow.

This assay relates to Plasmodium falciparum. Put plainly: Primary screen in NF54 nanoGlo assay, in single point, at 2uM, 72h; a lower Z score goes with more inhibition. In kind it is functional, Erythrocyte. The settings on record: timepoint 72 hour.
For orientation: % Inhibition means the change of the read-out against control, counted positive when it falls. Take `C[C@H]1CNCCN1C(=O)CCS(=O)(=O)c1ccc2c(c1)OCCCO2`: the “% Inhibition” value is -13% and the Z score is 1.79.
In the same order, the values of `C1=CCC(Nc2ccc3nnc(C4CC4)n3n2)C1` are -12% and 1.54.
In the same order, the values of `O=C(NCCC1CCCCCCC1)N1CCC[C@H](c2cc(O)ncn2)C1` are -6% and 0.78.
As to `CCOc1ccc(-c2nc(Cn3c(=O)c4c(C)cc(C)nc4n(C)c3=O)c(C)o2)cc1OC`, the “% Inhibition” value was -10% and the Z score is 1.35.
In the same order, the values of `CC[C@H](NC(=O)c1c(C)ncnc1C)c1ncnn1CC` are -15% and 1.59.
For `C1CCC2(CC1)[C@@H](OCC1CC1)CN2C1CCNCC1`, the “% Inhibition” value turned out to be 17% and the Z score is on record as -2.69.
In the same order, the values of `CCCCNC(=O)CN(C)Cc1[nH]cc(C)c(=O)c1C` are -12% and 2.01.
In the same order, the values of `O=C1CCN(C(=O)c2cccs2)CCCCCCN1` are -9% and 1.24.
In the same order, the values of `NC(=O)c1ccc(CNC2CCCCCCC2)o1` are -8% and 1.34.
Turning to `CCN(Cc1nc2c(cnn2C)c(=O)[nH]1)C1CCCC1`, the “% Inhibition” value is reported as -4% and the Z score stood at 0.44.
`N#Cc1ccc(C(=O)N2CC[C@@H](CO)[C@@H](O)C2)cn1`: the “% Inhibition” value was determined as 14% and the Z score is -1.56.
For the compound `CC[C@H](C)[C@H](NC(=O)NCc1ccccc1)c1nc2ccccc2[nH]1`, the “% Inhibition” value is given as 7% and the Z score is -0.97.
For the compound `CCOC(=O)c1cc(C(C)(C)C)n(C2CCN(S(=O)(=O)c3ccccc3C#N)CC2)n1`, the “% Inhibition” value is reported as -15% and the Z score stood at 2.51.
In the same order, the values of `CN(C)C(=O)Cn1cc(-c2nc(-c3ccco3)no2)nn1` are -5% and 0.76.
In the same order, the values of `Cc1ccc(CN(C(=O)c2cn3cccnc3n2)C2CCCC2)s1` are -13% and 1.69.
In the same order, the values of `CC(C)(C)Nc1nc(-c2nnc(-c3cccc(Cl)c3)o2)nc2ccccc12` are 1% and -0.24.
As to `CN1CC[C@@H]2CN(C(=O)Nc3nc(-c4ccccc4C(F)(F)F)ns3)C[C@@H]21`, the “% Inhibition” value came out at 1% and the Z score is recorded as -0.17.
Regarding `CC(C)N1CCN(c2ccc(-c3ccncc3)cn2)CC1`, the “% Inhibition” value is on record as 10% and the Z score is on record as -1.28.
As for `CCCN(Cc1cc(NC(=O)N(C)C)ccc1N(C)C)C(=O)C(CC)CC`, the “% Inhibition” value was -7% and the Z score came to 1.27.
As to `CC1Oc2ccccc2C1NC(=O)N1CCC(n2cccn2)C1` (centres undefined), the “% Inhibition” value turned out to be 5% and the Z score was -0.5.
Take `CC[C@H](O)C(=O)NCCOc1ccccc1Cl`: the “% Inhibition” value is given as 10% and the Z score is listed as -0.96.
With `O=C1CN(C[C@@H]2CCCN3CCCC[C@H]23)CCN1CCc1ccccc1`, the “% Inhibition” value is 12% and the Z score is -1.55.
In the same order, the values of `Cc1ccc(C(=O)Nc2ccc3c(c2)OCCCO3)o1` are 0% and -0.03.
In the same order, the values of `COc1ccc([C@H](C)n2c(C)c3c(C)nn4cc(-c5cc(Cl)ccc5Cl)cc4c3c2C)cc1` are 31% and -3.57.
In the same order, the values of `COCc1cc(CNc2ncc(Br)cc2CO)no1` are -7% and 0.72.
Take `O=C(COc1cccc(Cl)c1)N1CCCN(c2ccc3nncn3n2)CC1`: the “% Inhibition” value is reported as -3% and the Z score turned out to be 0.34.
In the same order, the values of `COC(=O)N(Cc1noc(-c2cccc3nn[nH]c23)n1)C1CC1` are -11% and 1.15.
In the same order, the values of `O=C(C[C@H]1COCCN1C(=O)Cc1cccnc1)N1CCCCCCC1` are -6% and 1.15.
With `Cc1ccc(N2CCC(NC3(C(=O)O)CCCC3)CC2)cc1Cl`, the “% Inhibition” value is -11% and the Z score was 2.09.
In the same order, the values of `CC1=C[C@@H](CN2CCC(C(N)=O)CC2)[C@H](C(C)C)C[C@H]1Cc1nnc(-c2ccc(N(C)C)cc2)o1` are -8% and 1.06.
In the same order, the values of `Cn1c(=O)[nH]cc(C(=O)NCc2ccc(F)cc2)c1=O` are -6% and 1.13.
In the same order, the values of `CCn1c(C)cc(C(=O)N2C[C@@H]3CC[C@H]2CN(c2cnccn2)C3)c1C` are -4% and 0.66.
In the case of `CC1(C)CN(C(=O)c2ccccc2-n2ccnn2)CC[C@@H]1O`, the “% Inhibition” value is -6% and the Z score stood at 0.59.
In the same order, the values of `CCOCC(=O)NCCc1cn(C)c2cc(C)ccc12` are -12% and 1.29.
In the same order, the values of `CCn1cc(S(=O)(=O)Nc2ncc(C(C)C)s2)cn1` are -4% and 0.42.
In the same order, the values of `Cc1ncccc1C(=O)N1CC(n2cc(COCc3ccccc3)nn2)C1` are 0% and 0.04.
Take `CC(CCc1ccccc1)N1C(=O)c2ccccc2C1O` (centres undefined): the “% Inhibition” value came out at 0% and the Z score is listed as 0.04.
In the same order, the values of `COCCC1(C)CN(C(=O)c2nc3cnccc3s2)C1` are 4% and -0.7.
Take `COc1ccc(-n2nnc3c(=O)n(CC(=O)NCCc4ccccc4)cnc32)cc1OC`: the “% Inhibition” value is listed as -11% and the Z score stood at 2.14.
In the same order, the values of `COc1nc(NC(=O)C2CC2c2ccc(F)c(F)c2)n[nH]1` (centres undefined) are -12% and 1.14.
Take `Cc1ncc(C(=O)N[C@H](CO)[C@@H](C)O)c(C2CC2)n1`: the “% Inhibition” value stood at 0% and the Z score is given as -0.01.
In the same order, the values of `Cn1nc([C@@H]2CCCN2C(=O)CC2CCCCC2)n(Cc2ccccc2)c1=O` are -18% and 2.46.
